Source: the supplement of paper PMC4967469
The IC50 comes from the fitted curve, where viability falls to half of the control; where the fit passes the top or lowest dose, that dose stands as a limit. For AUC the same curve is integrated over the 256-fold range of doses and scaled to a fraction; the more sensitive the line, the further below 1. For part of these data: The top dose, if marked as inferred, comes from the curve model; the source does not state it. For part of these data: Where an entry number is given, a second screen of the drug exists; the two often differ.

Key:
Experiment in all cases: Viability of human cancer cell lines after 72 h of drug (GDSC screen)
[1] = compound: CC(=O)O[C@@]12CO[C@@H]1C[C@H](O)[C@@]1(C)C(=O)[C@H](O)C3=C(C)[C@@H](OC(=O)[C@H](O)[C@@H](NC(=O)OC(C)(C)C)c4ccccc4)C[C@@](O)([C@@H](OC(=O)c4ccccc4)[C@H]21)C3(C)C [Docetaxel]; conditions: top dose 0.0125 µM
Experimental: (§1)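 Human cancer cell lines in 384-well plates, medium with 10% serum, drug for 72 h over a 256-fold dose range (nine 2-fold or five 4-fold steps up to the top dose). Adherent lines were fixed and stained with the nucleic acid dye Syto60, suspension lines read with resazurin; signal relative to control wells, capped at 0 and 100%. One two-parameter sigmoid per drug and line, fitted in a mixed model over all curves with the slope shared within a line.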

[2] = compound: CC1(C)CNc2cc(NC(=O)c3cccnc3NCc3ccncc3)ccc21 [AMG-706]; conditions: top dose 2 µM; top dose inferred
Experimental: as §1

[3] = compound: CC1=C2C[C@H]3[C@@H](CC=C4C[C@@H](O)CC[C@@]43C)[C@@H]2CC[C@]12O[C@@H]1C[C@H](C)CN[C@H]1[C@H]2C [Cyclopamine]; conditions: top dose 16 µM; top dose inferred
Experimental: as §1

[4] = compound: CCOc1nc(NC(=O)Cc2cc(OC)ccc2OC)cc(N)c1C#N [JNK Inhibitor VIII]; conditions: top dose 10 µM; top dose inferred
Experimental: as §1

[5] = compound: CN1CCN(c2ccc([N+](=O)[O-])c3no[n+]([O-])c23)CC1 [NSC-207895]; conditions: top dose 20 µM; top dose inferred
Experimental: as §1

[6] = compound: COC(=O)[C@H](CCSC)NC(=O)c1ccc(NC[C@@H](N)CS)cc1-c1ccccc1 [FTI-277]; conditions: top dose 1.024 µM; top dose inferred
Experimental: as §1

[7] = compound: COCC[n+]1c2c(n(Cc3cnccn3)c1C)C(=O)c1ccccc1C2=O [YM155]; conditions: top dose 5.12 µM
Experimental: as §1

[8] = compound: C[C@]1(O)C[C@@H](c2nc(-c3ccc4ccc(-c5ccccc5)nc4c3)c3c(N)nccn32)C1 [OSI-906]; conditions: top dose 2.56 µM; top dose inferred
Experimental: as §1

[9] = compound: Cc1ccc(C(=O)N(CCCN)[C@@H](c2nc3cc(Cl)ccc3c(=O)n2Cc2ccccc2)C(C)C)cc1 [SB-715992]; conditions: top dose 0.128 µM; top dose inferred
Experimental: as §1

[10] = compound: Cc1sc2c(c1C)C(c1ccc(Cl)cc1)=N[C@@H](CC(=O)OC(C)(C)C)c1nnc(C)n1-2 [JQ1]
Experimental: as §1

[11] = compound: O=C(/C=C/c1cccc(S(=O)(=O)Nc2ccccc2)c1)NO [Belinostat]; conditions: top dose 20 µM; top dose inferred
Experimental: as §1

[12] = compound: OCCCNc1cc(-c2ccnc(Nc3cccc(Cl)c3)n2)ccn1 [CGP-60474]; conditions: top dose 0.256 µM; top dose inferred
Experimental: as §1

[13] = compound: c1ccc2c(CCNc3ccc(Nc4ccncc4)cc3)c[nH]c2c1 [JNJ-26854165]; conditions: top dose 10 µM
Experimental: as §1

[14] = top dose 1 µM, screen: GDSC drug entry 1218, top dose inferred
[15] = top dose 2.56 µM, screen: GDSC drug entry 163

Cell Line | AUC [1] | IC50 [1] | AUC [2] | IC50 [2] | AUC [3] | IC50 [3] | AUC [4] | IC50 [4] | AUC [5] | IC50 [5] | AUC [6] | IC50 [6] | AUC [7] | IC50 [7] | AUC [8] | IC50 [8] | AUC [9] | IC50 [9] | AUC [10, 14] | IC50 [10, 14] | AUC [10, 15] | IC50 [10, 15] | AUC [11] | IC50 [11] | AUC [12] | IC50 [12] | AUC [13] | IC50 [13]
ROS-50 (B-cell leukaemia, suspension) | 0.985 | > 0.0125 µM | 0.984 | > 2 µM | 0.98 | > 16 µM | 0.98 | > 10 µM | 0.983 | > 20 µM | 0.98 | > 1.02 µM | 0.118 | < 0.02 µM | 0.905 | > 2.56 µM | 0.901 | > 0.128 µM | 0.983 | > 1 µM | 0.738 | 0.941 µM | 0.363 | 0.47 µM | 0.742 | 0.0976 µM | 0.956 | > 10 µM
RPMI-6666 (Hodgkin lymphoma, suspension) | 0.927 | > 0.0125 µM | 0.982 | > 2 µM | 0.981 | > 16 µM | 0.981 | > 10 µM | 0.903 | > 20 µM | 0.848 | 1.01 µM | 0.055 | < 0.02 µM | 0.926 | > 2.56 µM | 0.528 | 0.00971 µM | 0.825 | 0.767 µM | 0.673 | 0.538 µM | 0.209 | 0.141 µM | 0.657 | 0.048 µM | 0.886 | > 10 µM
RPMI-8226 (myeloma, suspension) | 0.669 | 0.00215 µM | 0.991 | > 2 µM | 0.932 | > 16 µM | 0.991 | > 10 µM | 0.905 | > 20 µM | 0.989 | > 1.02 µM | 0.018 | < 0.02 µM | 0.991 | > 2.56 µM | 0.71 | 0.0285 µM | 0.8 | 0.411 µM | 0.819 | 1.21 µM | 0.255 | 0.279 µM | 0.787 | 0.0962 µM | 0.885 | 8.46 µM
RPMI-8402 (T-cell lymphoblastic leukaemia, suspension) | 0.931 | > 0.0125 µM | 0.991 | > 2 µM | 0.898 | 14.4 µM | 0.991 | > 10 µM | 0.887 | 16.2 µM | 0.987 | > 1.02 µM | 0.023 | < 0.02 µM | 0.985 | > 2.56 µM | 0.405 | 0.00459 µM | 0.969 | > 1 µM | 0.801 | 1.02 µM | 0.121 | 0.105 µM | 0.757 | 0.0756 µM | 0.863 | 6.48 µM
RPMI-8866 (chronic myeloid leukaemia, suspension) | 0.753 | 0.0039 µM | 0.987 | > 2 µM | 0.988 | > 16 µM | 0.982 | > 10 µM | 0.907 | > 20 µM | 0.986 | > 1.02 µM | 0.021 | < 0.02 µM | 0.983 | > 2.56 µM | 0.909 | > 0.128 µM | 0.968 | > 1 µM | 0.912 | > 2.56 µM | 0.177 | 0.147 µM | 0.745 | 0.0759 µM | 0.775 | 3.66 µM
Ramos-2G6-4C10 (Burkitt lymphoma, suspension) | 0.76 | 0.00381 µM | 0.991 | > 2 µM | 0.977 | > 16 µM | 0.99 | > 10 µM | 0.93 | > 20 µM | 0.99 | > 1.02 µM | 0.017 | < 0.02 µM | 0.986 | > 2.56 µM | 0.668 | 0.0218 µM | 0.901 | 0.969 µM | 0.773 | 0.853 µM | 0.228 | 0.235 µM | 0.673 | 0.0448 µM | 0.884 | 8.12 µM
SCH (stomach, adherent) | 0.817 | 0.00772 µM | 0.988 | > 2 µM | 0.988 | > 16 µM | 0.988 | > 10 µM | 0.82 | 12.6 µM | 0.988 | > 1.02 µM | 0.149 | 0.0233 µM | 0.988 | > 2.56 µM | 0.988 | > 0.128 µM | 0.987 | > 1 µM | 0.988 | > 2.56 µM | 0.971 | > 20 µM | 0.797 | 0.132 µM | 0.948 | > 10 µM
SHP-77 (small cell lung carcinoma, semi-adherent) | 0.963 | > 0.0125 µM | 0.983 | > 2 µM | 0.976 | > 16 µM | 0.982 | > 10 µM | 0.948 | > 20 µM | 0.99 | > 1.02 µM | 0.715 | 1.2 µM | 0.99 | > 2.56 µM | 0.796 | 0.0529 µM | 0.991 | > 1 µM | 0.894 | 2.5 µM | 0.361 | 0.541 µM | 0.808 | 0.116 µM | 0.903 | > 10 µM
SK-ES-1 (Ewing sarcoma, semi-adherent) | 0.863 | 0.0119 µM | 0.985 | > 2 µM | 0.985 | > 16 µM | 0.985 | > 10 µM | 0.893 | > 20 µM | 0.969 | > 1.02 µM | 0.109 | < 0.02 µM | 0.561 | 0.238 µM | 0.752 | 0.0451 µM | 0.983 | > 1 µM | 0.74 | 0.816 µM | 0.198 | 0.147 µM | 0.706 | 0.0638 µM | 0.84 | 7.56 µM
